Measurements: the supplement of paper PMC10338343
± gives the standard deviation. The list shows a part of the results, in another mix than the full data.

Tested on: MIWI (PIWIL1) piRISC loaded with L1MC piRNA (30 nt)
Assay: pre-steady-state target cleavage rate (min^-1); MIWI and MILI are mouse PIWI proteins and EfPiwi is from a freshwater sponge; tags in brackets are library labels; higher = faster piRNA-guided slicing of the target
Details: guide: L1MC piRNA 5'p-UAACUAAAUACUAUGCAAGCUGUAGGUCCU; auxiliary factor: 500 nM mouse GTSF1
Method in brief: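 Active affinity-purified piRISC (1 nM) loaded with one synthetic guide was mixed with a transcribed, DNA-blocked target RNA library (0.1 nM), with or without 500 nM GTSF1 partner protein, in HEPES–potassium acetate buffer at 33 °C for 0–8 or 0–960 min. Uncleaved targets were sequenced, normalised to depth and to weakly complementary targets, and pooled across three trials, with k3 capped at 0.0001 min^-1. The pre-steady-state cleavage rate was determined with a burst-and-steady-state fit.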

Sequence | pre-steady-state target cleavage rate
UCCUGGAUGAGCUUGGUUAGUAUUUAGUUA | 0.299 ± 0.023
UGGACCUACACCUUGCAUAGUAAUUAGUUA | 0.607 ± 0.057
UCCUGGUACAGCUUGCAAAGUAAUUAGUUA | 0.558 ± 0.066
UCCUGGUUCAGCUUGCUUAGUAUUUAGUUA | 1.05 ± 0.065
AGGACCUACAGCUUGCAUAGUAUUAGUUA | 0.385 ± 0.053
UCCUGGAUGUGCUUGCAUGGUAUUUAGUUA | 0.209 ± 0.02
UCGACCUACUGCUUGCAUAGUAUAUAGUUA | 0.819 ± 0.036
UCCACCUACAGCUUGCAUAGUAUUUCGUUA | 0.455 ± 0.054
AGGACCAUGAGCUUGCAUAGUAUUUAGUUA | 1.14 ± 0.057
UGGACCUACAGCUAGCUUAGUAUUUAGUUA | 1.24 ± 0.085
UGGACCUAGAGCUUCCAUAGUAUUUAGUUA | 0.0252 ± 0.0086
UCCUGCUACAGCUUGCAUACUUUUUAGUUA | 0.0369 ± 0.0077
UCCUCCUACAGCUUGCAUAGUAAUUAGUUA | 0.789 ± 0.032
UCCUGCUACAGCUUGCAUAGUAUUUGGUUA | 0.754 ± 0.06
UCCUGGAUGAGCUUGCAUAAUAUUUAGUUA | 0.382 ± 0.042
AGGACCUACAGCUUGCAUAGUAUUAACUUA | 0.263 ± 0.046
UCCUGCUACAGCUUGCAUAGUCUUUAGUUA | 0.279 ± 0.034
UCCACCUACAGCAUGCAUAGUAUUUAGUAA | 0.602 ± 0.051
UCCUGGAACAGGUUGCAUAGUAUUUAGUUA | 1.07 ± 0.052
UCGACCUACAGCUUGCAUAGUAUUCAGUUA | 0.854 ± 0.06
UCCUGGAUGUGCUUGCAUAGUAUUUCGUUA | 0.0898 ± 0.015
UGGACCUACAGCUUGCAUAGUAUUUAAUUA | 0.218 ± 0.026
UCGACCUAGAGCUUGCAUAGUAAUUAGUUA | 0.759 ± 0.052
UCCUGGAUGACCUUGCAUAGUUUUUAGUUA | 0.0236 ± 0.0076
